# In the supplement of paper PMC12217912:
# This is one part of the list. The full chains were built here from the parent and the listed change. Inactive controls read about 0.05.
# B1: TEV protease; numbered along this chain (parent)
# chain: MGESLFKGPRDYNPISSSICHLTNESDGHTTSLYGIGFGPFIITNKHLFRRNNGTLVVQSLHGVFKVKDTTTLQQHLVDGRDMIIIRMPKDFPPFPQKLKFREPQREERICLVTTNFQTKSMSSMVSDTSCTFPSGDGIFWKHWIQTKDGQCGSPLVSTRDGFIVGIHSASNFTNTNNYFTSVPKNFMELLTNQEAQQWVSGWRLNADSVLWGGHKVFMVKPEEPFQPVKEATQL
# Variants of: B1
# Assay: raw area under fraction-flipped curve 0-4 h after induction (AUC4h, not background-subtracted), DNA-recorder readout of cleavage of the substrate (dimensionless); higher = more cleavage of the substrate by the protease variant
# Settings: temperature: 34 °C; time window: 0-4 h after rhamnose induction
# Experimental: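 In vivo DNA recorder in E. coli TOP10(DE3) ΔrhaA at 34 °C. Each TEVp single-site mutant (parent TEVp 0) is paired with a single-site variant of the 7-mer TEVs (canonical ENLYFQ|S). The substrate sits between flexible linkers in a Bxb1-sfGFP-TEVs-SsrA fusion, so cleavage stabilises Bxb1 and speeds flipping of a recombination array, read by NGS. The value is the raw area under the fraction-flipped curve over 0-4 h after rhamnose induction (AUC4h), with ≥20 reads per time point. It is not background-subtracted; inactive controls average about 0.047.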
# 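Also: Bxb1 expression induced with 0.2% (w/v) L-rhamnose at OD600 near 0.5, cultures sampled hourly, flipped fraction per protease–substrate barcode pair counted by paired-end Illumina sequencing.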
Variant,area with substrate ENLYAQS,area with substrate ENLYDQS,area with substrate ENLYEQS,area with substrate ENLYGQS,area with substrate ENLYHQS,area with substrate ENLYIQS,area with substrate ENLYKQS,area with substrate ENLYMQS,area with substrate ENLYNQS,area with substrate ENLYPQS,area with substrate ENLYQQS,area with substrate ENLYRQS,area with substrate ENLYSQS,area with substrate ENLYTQS,area with substrate ENLYWQS,area with substrate ENLYCQS,area with substrate ENLYLQS,area with substrate ENLYVQS,area with substrate ENLYYQS
MGESLFKGPRDYNPISSSICHLTNESDGHTTGLYGIGFGPFIITNKHLFRRNNGTLVVQSLHGVFKVKDTTTLQQHLVDGRDMIIIRMPKDFPPFPQKLKFREPQREERICLVTTNFQTKSMSSMVSDTSCTFPSGDGIFWKHWIQTKDGQCGSPLVSTRDGFIVGIHSASNFTNTNNYFTSVPKNFMELLTNQEAQQWVSGWRLNADSVLWGGHKVFMVKPEEPFQPVKEATQL [S32G],0.0619,0.057,0.0677,0.0464,0.0474,0.129,0.0697,0.0763,0.0544,0.0708,0.0556,0.0541,0.0724,0.0825,0.0859,,,,
MGESLFKGPRDYNPISSSICHLTNESDGHTTSLYGIGFGPFIITNKHLFRRNNGTLVVQSLHGVFKVKDTTTLQQHLVDGRDMIIIRMPKDFPPFPQKLKFREPQREERICLVTTNFQTKSMSSMVSDTSCTFPSGDGIFWKHWIQTKDGQCGSPLVSTRDGFIVGIHSASNFTNTNNYFTSVPKNFMELLTNQEAQQWVSGWRLNADSVLWGGHKVFMVKPEEPFQPVKEATQL [unchanged],0.0739,0.0624,0.0687,0.0644,0.0692,0.123,0.0605,0.085,0.0681,0.0725,0.064,0.0626,0.075,0.0793,0.0806,0.087,0.0871,0.116,0.0648
MGESLFKGPRDYNPISSSICHLTNESDGHTTSLYGIGFGPFIITNKHLFRRNNGTLVVQSLHGVFKVKDTTTLQQHLVDGRDMIIIRMPKDFPPFPQKLKFREPQREERICLVTTNFQTKSMSSMVSDTSCTFPSGDGIFWKHWIQTKDGQCGSPLVSTRDGFIVGIHSASNFTNTNNYFTSVPKNFMELLTNQEAQQWVSGWRLNADSVLWGGHKVFMVKHEEPFQPVKEATQL [P222H],0.0743,0.0557,0.0602,0.0611,0.076,,0.0563,0.0823,0.0556,0.0623,0.0564,,,,0.0742,,0.0666,0.124,0.0445
MGESLFKGPRDYNPISSSICHLTNESDGHTTSLYGIGFGPFIITNKHLFRRNNGTLVVQSLHGVFKVKDTTTLQQHLVDGRDMIIIRMPKDFPPFPQKLKFREDQREERICLVTTNFQTKSMSSMVSDTSCTFPSGDGIFWKHWIQTKDGQCGSPLVSTRDGFIVGIHSASNFTNTNNYFTSVPKNFMELLTNQEAQQWVSGWRLNADSVLWGGHKVFMVKPEEPFQPVKEATQL [P104D],0.061,,,0.0559,0.0564,0.0499,0.0477,0.0428,,0.0599,0.0419,0.0563,0.0548,0.0426,,0.0601,0.0305,0.0604,0.0385
